Hit rate of the full screen: of about 200,000 compounds, about 10 (0.005%) were called active. This list was built around the results that the source calls inconclusive (neither active nor inactive); the mix of calls is not that of the screen. The call rests on the fitted dose curve; in most records, active means well fitted inhibition curve with a large enough effect; inconclusive means small, poorly fitted or top-dose-only effect, or effect the other way, or another doubt; inactive means no such curve, though single readings can be large or run the other way. Potencies of inconclusive entries are left out as doubtful fits.
These compounds were tested against Lysosomal alpha-glucosidase (Homo sapiens) (UniProt P10253) (assay: qHTS Assay for Inhibitors of Human alpha-Glucosidase as a Potential Chaperone Treatment of Pompe Disease). Settings: purified human GAA, 4-MU-alpha-glucoside fluorescence; activity change, negative = inhibition: at 76.9 µM (top of the series) unless noted.
Procedure, shortened: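 Fluorogenic assay: 4 nM human alpha-glucosidase with 400 uM 4-methylumbelliferyl-alpha-D-pyranoside in 50 mM citrate/phosphate, 0.005% Tween-20, pH 5.0, 20 min at room temperature. Compounds tested up to 77 uM; AC50 from Hill fits.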
Potency means the concentration at half of the fitted maximal effect; tags describe the fitted curve by direction and shape.
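Wherever activity change, negative = inhibition is given: plate controls were uninhibited enzyme wells for no effect and no-enzyme background for full effect.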

Row | Compound | Potency | activity change, negative = inhibition
1 | Cc1ccc2c(c1)C(N1CCCC1=O)CC(c1ccco1)N2 (centres undefined) | inconclusive [activator, single point] | 
2 | CCOC(=O)c1ccc(N2C(=O)c3n[nH]c(C)c3C2c2ccccc2)cc1 (centres undefined) | inconclusive [inhibitor, single point] | 
3 | CC(C)c1csc(CN2CCC(N3CCC(C(=O)N4CCOCC4)CC3)CC2)n1 |  | inconclusive: 14.5% [activator]
4 | CCOc1ccc(Br)cc1S(=O)(=O)Nc1cccc(S(=O)(=O)NC2=NCCC2)c1 | inconclusive [inhibitor, single point] | 
5 | COc1ccc(C2CC(c3ccccc3)=NN2C(=O)c2cccs2)cc1 (centres undefined) | inconclusive [inhibitor, partial curve] | 
6 | COc1ccc(OC)c(C(=O)CSc2nc3cccnc3n2C)c1 |  | inactive: 5.76%
7 | O=C(NCCc1ccc(Cl)cc1)c1n[nH]c2ccccc12 | inconclusive [inhibitor, full curve, poor fit] | 
8 | CCOc1cc(/C=N/NC(=O)C(=O)N2CCCC2)ccc1O |  | inconclusive: 5% [activator]
9 | COc1ccc(NC(=S)NC(=O)/C=C/c2cccs2)cc1 | inconclusive [inhibitor, full curve, poor fit] | 
10 | COC(=O)c1ccc(/C=N\N2CCN(Cc3ccc(C)cc3)CC2)cc1 | inconclusive [inhibitor, single point] | 
11 | O=Cc1cccc(OC(=O)c2ccc(Cl)cc2Cl)c1 | inconclusive [inhibitor, single point] | 
12 | CCC(C)Nc1nc(-c2cccc(OC)c2O)nc2ccccc12 (centres undefined) | inconclusive [inhibitor, single point] | 
13 | CN1CCN(c2oc(COc3ccc(-c4ccccc4)cc3)nc2C#N)CC1 | inconclusive [inhibitor, single point] | 
14 | Cc1nc(Nc2nc3ccccc3o2)nc2c1CCC2 | inconclusive [inhibitor, single point] | 
15 | CC(C)(C)NC(=O)c1sccc1C(=O)O | inconclusive [activator, partial curve] | 
16 | O=C(COC(=O)c1cncc(Br)c1)NCCC1=CCCCC1 | inconclusive [inhibitor, full curve, poor fit] | 
17 | O=S(=O)(c1cccc(-c2nnc(SC(F)F)n2-c2ccccc2)c1)N1CCCCC1 | inconclusive [inhibitor, full curve, poor fit] | 
18 | Cc1sc2nc(N)sc2c1C |  | inactive: -5.38%
19 | CCCCNC(=O)COC(=O)c1ccc(Cl)c(S(=O)(=O)N2CCCC2)c1 | inconclusive [inhibitor, single point] | 
